Inconclusive results, whose numbers are uncertain, are shown with a selection of clear calls. For some assays here: Potencies of inconclusive entries are left out as doubtful fits. Active and inactive are the calls of the source. Unless noted, the call rests on the fitted dose curve; in most records, active means well fitted curve in the direction sought with a large enough effect in the repeat runs; inconclusive means weak or mixed curves; inactive means no such curve, though single readings can be large; an effect the other way counts as inactive or inconclusive.
Legend:
[1] = qHTS assay to identify small molecule antagonists of the estrogen related receptor (ERR) signaling pathway (AID 1224819; further: nearly all actives have a fitted effect of over 50% in size; further: potency means the concentration at half of the fitted maximal effect)
Method in brief: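 Luminescence readout (One-Glo, 30 min, RT) of ERR cell line after 18 h compound exposure at 37 C; cells seeded 2,000/well, pre-incubated 6 h, compounds pinned from DMSO stocks.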

[2] = system: estrogen-related receptor alpha (ERRalpha) with PGC-1alpha coactivator, human; assay: qHTS assay to identify small molecule antagonists of the estrogen related receptor signaling pathway with the pleiotropic PPARgamma coactivator (PGC) (AID 1224821; calls by dose curve; further: nearly all actives have a fitted effect of over 50% in size; further: potency means the concentration at half of the fitted maximal effect;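 on activity change, negative = inhibition: on the % scale 0 is the no-effect control and ±100 the full control effect; lower luminescence signal means antagonism of PGC/ERR signalling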)
Method in brief: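 PGC/ERR reporter cells; 6 h pre-incubation 37 C/5% CO2; pin-tool compound in DMSO, 18 h 37 C; One-Glo added, 30 min RT; luminescence read. qHTS antagonist mode.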

[3] = qHTS assay to identify small molecule antagonists of the estrogen related receptor signaling pathway with the pleiotropic PPARgamma coactivator (PGC) cell viability counter screen (AID 1224822; further: potency means the concentration at half of the fitted maximal effect;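 further: viability read after 17.5 h compound exposure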; on viability change, negative = cytotoxic: on the % scale 0 is the no-effect control and ±100 the full control effect)
Method in brief: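 Fluorescence read-out of CellTiter-Fluor after 30 min at 37 C; PGC/ERR cells, 2,000 per well, had been exposed to DMSO-dissolved compounds for 17.5 h following a 6 h pre-incubation.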

[4] = qHTS assay to identify small molecule agonists of the estrogen related receptor signaling pathway with the pleiotropic PPARgamma coactivator (PGC) (AID 1224823); further: potency means the concentration at half of the fitted maximal effect; on activation: on the % scale 0 is the no-effect control and ±100 the full control effect
Method in brief: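 Luminescence readout (One-Glo, 30 min RT) from PGC/ERR cell line treated 18 h at 37 C with pin-tool-delivered DMSO compound solutions; cells plated 6 h before dosing. Quantitative HTS format.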

[5] = qHTS assay for small molecule disruptors of the mitochondrial membrane potential - cell viability (AID 720634; calls by dose curve;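 further: human HepG2 liver cancer cells; on the % scale 0 is the no-effect control and ±100 the full control effect; nearly all actives have a fitted effect of over 20% in size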)
Method in brief: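 Luminescence from CellTiter-Glo (ATP content) gave viability in HepG2 cells, read in the same wells as the MMP dye assay after 1 hr compound exposure at 37 C.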

[6] = qHTS assay for small molecule disruptors of the mitochondrial membrane potential (AID 720635); conditions: HepG2 mitochondrial membrane potential, Mito-MPS dye ratio; ratio activity, negative = MMP loss: at 83.2 µM (top of the series) unless noted; further: on the % scale 0 is the no-effect control and ±100 the full control effect
Method in brief: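 HepG2 cells exposed to compound 1 hr at 37C, then Mito-MPS dye 30 min. Ratio read of aggregate (540/590 nm) versus monomer (490/535 nm) fluorescence.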

[7] = qHTS assay to identify small molecule antagonists of the glucocorticoid receptor (GR) signaling pathway - cell viability counter screen (AID 720693); conditions: GR-bla HeLa viability, CellTiter-Glo luminescence, 18 h, with 5 nM dexamethasone present; viability change, negative = cytotoxic: at 58.5 µM (top of the series); further: on the % scale 0 is the no-effect control and ±100 the full control effect; nearly all actives have a fitted effect of over 55% in size
[8] = qHTS assay for identifying genotoxic compounds that show differential cytotoxicity against isogenic chicken DT40 cell lines with known DNA damage response pathways - Rev3 mutant cell line (AID 743014); conditions: chicken DT40 Rev3-/- viability, CellTiter-Glo, 40 h; activity, negative = cytotoxicity: at 68.4 µM (top of the series) unless noted; further: potency means the concentration at half of the fitted maximal effect; nearly all actives have a fitted effect of over 55% in size
[9] = qHTS assay to identify small molecule antagonists of the estrogen receptor alpha (ER-alpha) signaling pathway - cell viability counter screen (AID 743074; calls by dose curve;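 further: HEK293 cells carrying ER-alpha-UAS-bla reporter stimulated with 17beta-estradiol; on the % scale 0 is the no-effect control and ±100 the full control effect; nearly all actives have a fitted effect of over 45% in size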)
[10] = qHTS assay to identify small molecule antagonists of the estrogen receptor alpha (ER-alpha) signaling pathway using the BG1 cell line (AID 743080; calls by dose curve;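 further: BG1 cells stimulated with 17beta-estradiol alongside compound; on the % scale 0 is the no-effect control and ±100 the full control effect; nearly all actives have a fitted effect of over 25% in size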); conditions: BG1Luc4E2 ERE-luciferase antagonist mode, luminescence; activity change, negative = inhibition: at 70.3 µM (top of the series) unless noted
Method in brief: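 Seeding, 24 h rest, compound transfer from DMSO, 17beta-estradiol addition, 21.5 h incubation, CellTiter-Fluor (30 min, 37 C), then ONE-Glo (30 min, room temperature): this sequence was run on BG1-Luc-4E2 reporter cells.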

[11] = qHTS assay to identify small molecule agonists of the estrogen related receptor (ERR) signaling pathway (AID 1224820); further: potency means the concentration at half of the fitted maximal effect
Method in brief: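 Luminescence readout (One-Glo, 30 min RT) from NTP-supplied ERR cell line exposed to compounds for 18 h at 37 C. Cells seeded 2,000 per well and pre-incubated 6 h before pin-tool compound transfer.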

[12] = qHTS assay for small molecule agonists of the p53 signaling pathway (AID 651631; calls by dose curve; further: on the % scale 0 is the no-effect control and ±100 the full control effect; nearly all actives have a fitted effect of over 15% in size); conditions: HCT-116 p53RE-bla reporter, beta-lactamase FRET ratio, 16 h; activation: at 73.3 µM (top of the series) unless noted
Method in brief: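 Testing took place in human colorectal HCT-116 cells with stable p53RE-driven beta-lactamase. After 16 h of compound exposure at 37 °C, a FRET substrate was added and fluorescence recorded 2 h later.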

[13] = qHTS assay for small molecules that induce genotoxicity in human embryonic kidney cells expressing luciferase-tagged ATAD5 - cell viability (AID 651634; calls by dose curve; further: potency means the concentration at half of the fitted maximal effect; nearly all actives have a fitted effect of over 25% in size)
Method in brief: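 HEK293T ATAD5-luc cells, 2,000/well; compound 15.5 hr, 37C/5% CO2; CellTiter-Fluor 30 min, 37C; fluorescence read.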

[14] = target: Glucocorticoid receptor (Homo sapiens) (UniProt P04150); assay: qHTS assay to identify small molecule antagonists of the glucocorticoid receptor (GR) signaling pathway (AID 720692; active means well fitted inhibition curve with a large enough effect in the signal ratio in the repeat runs, not every such curve was filed as active; inconclusive means weak or mixed curves, or effect the other way; inactive means no such curve, though single readings can be large or run the other way; the % refers to the signal ratio; further: on the % scale 0 is the no-effect control and ±100 the full control effect); conditions: GR-bla HeLa, beta-lactamase FRET ratio, dexamethasone-stimulated, 18 h; activity change, negative = inhibition: at 58.5 µM (top of the series) unless noted
Method in brief: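 Read-out: beta-lactamase FRET substrate fluorescence, 2 h at room temperature, in HeLa cells stably carrying a GRE-driven bla reporter. Compounds were co-incubated with 5 nM dexamethasone agonist (final) for 18 h at 37 C.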
Tags describe the fitted curve by direction and shape.

Sequence of UniProt P04150 (P04150 whole entry, looked up): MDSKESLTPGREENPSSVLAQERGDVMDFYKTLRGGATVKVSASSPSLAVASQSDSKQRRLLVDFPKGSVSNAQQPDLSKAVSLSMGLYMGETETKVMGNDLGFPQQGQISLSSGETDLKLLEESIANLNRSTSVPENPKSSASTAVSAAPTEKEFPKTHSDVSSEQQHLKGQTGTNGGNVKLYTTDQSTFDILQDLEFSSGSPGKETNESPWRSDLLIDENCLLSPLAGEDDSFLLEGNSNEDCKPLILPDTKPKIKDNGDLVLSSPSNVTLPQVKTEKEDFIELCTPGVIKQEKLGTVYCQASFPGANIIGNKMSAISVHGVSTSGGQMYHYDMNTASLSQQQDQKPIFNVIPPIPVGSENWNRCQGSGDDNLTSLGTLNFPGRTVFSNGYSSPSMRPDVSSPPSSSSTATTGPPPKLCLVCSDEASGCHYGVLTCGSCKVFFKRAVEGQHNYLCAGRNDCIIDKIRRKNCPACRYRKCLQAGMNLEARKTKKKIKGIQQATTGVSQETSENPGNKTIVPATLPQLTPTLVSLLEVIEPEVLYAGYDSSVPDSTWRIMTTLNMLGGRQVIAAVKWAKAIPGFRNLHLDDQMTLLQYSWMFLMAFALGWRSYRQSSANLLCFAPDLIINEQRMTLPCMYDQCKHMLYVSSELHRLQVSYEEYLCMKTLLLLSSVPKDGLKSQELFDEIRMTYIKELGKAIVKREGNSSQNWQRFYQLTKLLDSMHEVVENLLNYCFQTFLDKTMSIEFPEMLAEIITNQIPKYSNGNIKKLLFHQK

Oc1ccc(-c2nc(-c3ccc(F)cc3)c(-c3ccncc3)[nH]2)cc1
Potency [1]: active: 11.4 µM | Potency [2]: inconclusive [inhibitor] | Potency [3]: inconclusive [cytotoxic, partial curve, poor fit]

Oc1cc2c(c(Cl)c1O)CCNCC2c1ccccc1 (stereo unspecified)
Potency [1]: active: 8.41 µM | Potency [2]: inconclusive [inhibitor] | Potency [3]: inconclusive [cytotoxic, single point]

CC(C)(C)c1ccc(/C=C/C(=O)Nc2ccc3c(c2)OCCO3)cc1
Potency [1]: inconclusive [inhibitor] | Potency [2]: inactive | Potency [3]: inactive

CCCCOC(=O)NS(=O)(=O)c1sc(CC(C)C)cc1-c1ccc(Cn2c(CC)nc3c(C)cc(C)nc32)cc1
Potency [1]: active: 11.9 µM | Potency [2]: inconclusive [inhibitor] | Potency [3]: inconclusive [cytotoxic]

CC(C)[C@H](NC(=O)OCc1ccccc1)C(=O)N[C@H](C=O)Cc1ccccc1
Potency [1]: inconclusive [inhibitor] | Potency [2]: inconclusive [inhibitor] | Potency [3]: inconclusive [cytotoxic, partial curve]

CCCC[C@@]1(C2CCCC2)Cc2cc(OCC(=O)O)c(Cl)c(Cl)c2C1=O
Potency [1]: active: 11.4 µM | Potency [2]: active: 13.9 µM | Potency [3]: inconclusive [cytotoxic] | Potency [4]: inactive

O=C(CCSCc1ccco1)NNC(=O)N1Cc2ccccc2Oc2ccc(Cl)cc21
Potency [1]: inconclusive [inhibitor] | Potency [2]: inconclusive [inhibitor] | Potency [3]: inactive

CCC1(O)CC2CN(CCc3c([nH]c4ccccc34)[C@@](C(=O)OC)(c3cc4c(cc3OC)N(C)C3[C@]45CCN4CC=C[C@@](CC)([C@@H](OC(C)=O)[C@]3(O)C(=O)OC)[C@H]45)C2)C1 (stereo partly specified)
Potency [1]: inconclusive [inhibitor, partial curve] | Potency [2]: inconclusive [inhibitor]

Cc1cc(NC2CCCCC2)nc(-n2nc(C)cc2C)n1
Potency [1]: active: 10.2 µM | Potency [2]: active: 0.694 µM | Potency [3]: inconclusive [cytotoxic, full curve]

CCOC(=O)C(C)Oc1cccc2c(=O)n(CC(=O)Nc3ccc4c(c3)OCCO4)ccc12 (stereo unspecified)
Potency [1]: inactive | Potency [4]: inconclusive [activator]

CNCCc1cnc(CCC(c2ccccc2)c2ccccc2)[nH]1
Potency [1]: inactive | Potency [3]: inconclusive [cytotoxic]

Nc1cc(Cl)c(NC2=NCCN2)c(Cl)c1
Potency [5]: inactive | Potency [6]: inactive | Potency [7]: inactive | Potency [8]: inconclusive [rising, partial curve, poor fit] | Potency [9]: inactive | Potency [10]: inactive | Potency [1]: inactive | Potency [3]: inactive

O=C(O)c1ccccc1Nc1ccccc1
Potency [1]: inconclusive [inhibitor, single point] | Potency [3]: inactive

O=C(c1ccc2c(c1)OCCO2)N1CCCCC1
Potency [11]: inconclusive [activator, single point]

O=C(/C=C/c1ccc(O)c(O)c1)OCCc1ccccc1
Potency [1]: inactive | Potency [4]: active: 14.4 µM

O=C(O)c1ccccc1Nc1cccc(OCc2ccc3ccccc3n2)c1
Potency [1]: inconclusive [inhibitor] | Potency [3]: inactive

CN1CCCC1CCOC(C)(c1ccccc1)c1ccc(Cl)cc1 (stereo unspecified)
Potency [1]: inconclusive [inhibitor, partial curve, poor fit] | Potency [3]: inconclusive [cytotoxic] | Potency [4]: inactive

N[C@H](CO)C(=O)O
activation [12]: inconclusive: 9.4% | Potency [13]: inconclusive [falling, partial curve, poor fit] | ratio activity, negative = MMP loss [6]: inconclusive: -23.7% | activity change, negative = inhibition [14]: inconclusive: 23.3% | Potency [8]: inconclusive [rising, partial curve, poor fit] | Potency [1]: inactive

CCCn1c(=O)c2[nH]c(C3CCCC3)nc2n(CCC)c1=O
Potency [11]: inconclusive [activator, single point]

— PubChem BioAssay (Tox21)
